Values joined by “and” are separate entries in the source; they are usually repeats but may differ in a detail not shown here. Identical values can stand only once. This list was built around the results that the source calls inconclusive (neither active nor inactive); the mix of calls is not that of the screen. Potencies of inconclusive entries are doubtful fits and often do not repeat. Active and inactive are the calls of the source. Calls come from the whole dose curve; as a rule, active = well fitted activation curve with a large enough effect in the signal ratio in the repeat runs (not every such curve was filed as active); inconclusive = weak or mixed curves, or effect the other way; inactive = flat fitted curve, though single readings scatter; the % refers to the signal ratio.
Biological target: Estrogen receptor beta (Homo sapiens) (UniProt Q92731)
Assay: qHTS assay to identify small molecule agonists of the estrogen receptor beta (ER-beta) signaling pathway (AID 1259377)
Conditions: ER-beta-UAS-bla HEK293T, beta-lactamase FRET ratio, 16 h; activation: at 92.4 µM (top of the series) unless noted
Source text: U.S. Tox21 Program National Center for Advancing Translational Sciences [NCATS] NIH Chemical Genomics Center [NCGC] U.S. Environmental Protection Agency [EPA] National Institutes of Environmental Health Sciences [NIEHS] National Toxicology Program [NTP] U.S. Food and Drug Administration [FDA] Tox21 Assay Overview: Estrogen receptor (ER), a nuclear hormone receptor, plays an important role in development, metabolic homeostasis and reproduction. Two subtypes of ER, ER-alpha and ER-beta, have similar expression patterns with some uniqueness in both types. Endocrine disrupting chemicals (EDCs) and their interactions with steroid hormone receptors like ER causes disruption of normal endocrine function. To identify the compounds that activate ER signaling, an ER beta-UAS-bla GripTite cell line (Life technologies, Madison, WI, USA) containing a beta-lactamase reporter gene under the control of an Upstream Activator Sequence (UAS) was used to screen Tox21 10K compound library.
Tox21 Assay Protocol Summary: ER-beta-UAS-bla HEK293T cells were dispensed at 2,000 cells/5 uL of assay medium containing 2% charcoal stripped FBS per well into black wall/clear-bottom 1536-well plates using a Multidrop Combi (ThermoFisher Scientific, Waltham, MA) dispenser. After the assay plates were incubated at a 37C and 5% CO2 for 6 hr, 23 nL of compounds dissolved in DMSO, positive controls or DMSO only was transferred to the assay plate by a Pintool station (Kalypsys, San Diego, CA). The plates were incubated at 37C and 5% CO2 for 16 hr. Then 1 uL of LiveBLAzerTM B/G FRET substrate was added using a BioRAPTR FRD (Flying Reagent Dispenser, Aurora Discovery, San Diego, CA). After the plates were incubated at room temperature for 2 hours, fluorescence intensity was measured by an Envision plate reader (PerkinElmer, Shelton, CT).
% is set by controls: 0 for no effect and ±100 for the full control effect; potency is the fitted concentration of half-maximal effect; tags give direction and shape of the fitted curve or compound fluorescence and quenching.

Sequence of UniProt Q92731 (Q92731 whole entry, looked up): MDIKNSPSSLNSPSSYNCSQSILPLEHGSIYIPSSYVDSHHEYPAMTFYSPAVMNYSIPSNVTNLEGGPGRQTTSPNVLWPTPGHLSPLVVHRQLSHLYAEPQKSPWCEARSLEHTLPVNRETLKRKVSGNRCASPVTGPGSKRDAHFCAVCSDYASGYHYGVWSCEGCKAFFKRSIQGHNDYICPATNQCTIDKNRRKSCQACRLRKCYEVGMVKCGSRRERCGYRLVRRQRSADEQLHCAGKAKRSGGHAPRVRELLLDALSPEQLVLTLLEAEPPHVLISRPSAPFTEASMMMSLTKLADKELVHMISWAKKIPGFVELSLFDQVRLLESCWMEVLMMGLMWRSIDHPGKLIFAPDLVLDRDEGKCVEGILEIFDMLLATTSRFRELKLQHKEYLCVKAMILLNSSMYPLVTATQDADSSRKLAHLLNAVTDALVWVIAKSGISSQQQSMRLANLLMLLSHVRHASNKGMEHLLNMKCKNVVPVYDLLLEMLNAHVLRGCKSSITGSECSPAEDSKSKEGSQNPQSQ

Row | SMILES | Potency | activation
1 | CCN(CC)c1ccc2c(C)cc(=O)oc2c1 | inconclusive: 54.9 µM [fluorescent, partial curve] and inconclusive: 54.5 µM [fluorescent, partial curve] | 
2 | CCOC(=O)N1CCC(=C2c3ccc(Cl)cc3CCc3cccnc32)CC1 | inconclusive: 68.6 µM | 
3 | CC(C)=CCNc1ncnc2c1ncn2[C@@H]1O[C@H](CO)[C@@H](O)[C@H]1O | inconclusive: 9.44 µM [activator, full curve] | 
4 | CC[C@@]1(O)C(=O)OCc2c1cc1n(c2=O)Cc2c-1nc1ccccc1c2/C=N/OC(C)(C)C | inconclusive: 33.5 µM [fluorescent, single point] | 
5 | C=C1C(C)(C)[C@@]2(Cl)C(Cl)[C@]1(Cl)C(Cl)(Cl)C2(Cl)Cl (stereo not given in full) | inconclusive: 67.3 µM [falling, single point] | 
6 | CC(C)(c1cc(Br)c(O)c(Br)c1)c1cc(Br)c(O)c(Br)c1 | inconclusive: 7.66 µM [rising, full curve] | inconclusive: -8.25% and inconclusive: 1.56%
7 | CCCCCCCCCCn1cc[n+](CCCCCCCCCC)c1C | inconclusive: 68.7 µM [cytotoxic, single point] | 
8 | Cc1cc(OCCOCC[N+](C)(C)Cc2ccccc2)ccc1C(C)(C)CC(C)(C)C | inconclusive: 76.5 µM [single point] | 
9 | Cc1cc(CCN2CCN(c3nsc4ccccc34)CC2)cc2c1NC(=O)CC2(C)C | inconclusive: 30.6 µM [rising, full curve] | 
10 | COc1ccc2[nH]cc(CCNC(C)=O)c2c1 |  | inconclusive: 0.131%
11 | Cc1cc(O)c(C(C)(C)C)cc1C(C)(C)C | inconclusive: 77 µM | 
12 | CCCC(=O)c1cc(O)c(O)cc1O | inconclusive: 54.5 µM | 
13 | C=C1C(CCl)(CCl)C2(Cl)C(Cl)C(Cl)C1(Cl)C2(Cl)Cl (stereo not given) | inconclusive: 67.8 µM [falling, single point] | 
14 | CCCCCCC(C)OC(=O)COc1nc(F)c(Cl)c(N)c1Cl (stereo not given) |  | inconclusive: -0.516%
15 | Oc1c(Br)cc(Br)c2cccnc12 | inconclusive: 13.3 µM [partial curve, poor fit] | 
16 | Nc1ccc(N)c2ccccc12 | inconclusive: 48.5 µM [rising, partial curve] | 
17 | C=CCc1cc(S(=O)(=O)c2ccc(O)c(CC=C)c2)ccc1O | inconclusive: 27.3 µM [rising, single point] | 
18 | COC(=O)c1c(Cl)c(Cl)c(C(=O)OC)c(Cl)c1Cl | inconclusive: 68.6 µM [fluorescent, partial curve, poor fit] | 
19 | Cc1cc(Cc2ccc(N)c(C)c2)ccc1N | inconclusive: 68.6 µM [rising, partial curve, poor fit] | 
20 | [Cl][Bi]([Cl])([c]1ccccc1)([c]1ccccc1)[c]1ccccc1 | inconclusive: 5.42 µM [rising, partial curve] | 

Row | SMILES | Potency | activation
21 | c1ccc2cc3ccccc3cc2c1 |  | inconclusive: 14.3%
22 | Oc1c(Cl)cc(Cl)c(Cl)c1Cc1c(O)c(Cl)cc(Cl)c1Cl | inconclusive: 24.3 µM [rising, partial curve] | 
23 | Clc1ccc(C(c2ccccc2Cl)C(Cl)Cl)cc1 (stereo not given) |  | inconclusive: -1.01% [at 42.5 µM]
24 | Nc1ccc2c(c1)CN1C(=O)c3ccccc3C1=N2 | inconclusive: 10.3 µM [fluorescent, partial curve] | 
25 | Clc1nc(C(Cl)(Cl)Cl)c(Cl)c(Cl)c1Cl | inconclusive: 13.7 µM [rising, partial curve] | 
26 | CC(Cc1ccc(O)c(O)c1)C(C)Cc1ccc(O)c(O)c1 (stereo not given) | inconclusive: 68.6 µM [rising, single point] | 
27 | CCOC(=O)O[C@H](C)OC(=O)c1ccc2c(c1)cc(C(=O)NC1CCN(C(C)C)CC1)n2Cc1cc(-c2ccc(Cl)s2)on1 | inconclusive: 28.6 µM [full curve] | 
28 | CCC1(c2cnc[nH]2)Cc2ccccc2C1 | inconclusive: 13.3 µM [falling, partial curve] | 
29 | CCCCCCCO | inactive | 
30 | COc1cc(/C=C/C(=O)CC(=O)/C=C/c2ccc(O)c(OC)c2)ccc1O | inconclusive: 27.5 µM [fluorescent, partial curve] | 
31 | CCCCCCCCCCCCc1ccc(O)cc1 | inconclusive: 61.1 µM | 
32 | c1ccc2[nH]ccc2c1 | inconclusive: 26.9 µM [rising, single point] | 
33 | Clc1ccc2n[nH]nc2c1 | inconclusive: 54.5 µM [falling, partial curve, poor fit] | 
34 | NC(=O)C1(N2CCCCC2)CCN(CCCN2c3ccccc3CCc3ccc(Cl)cc32)CC1 | inconclusive: 37.6 µM [falling, single point] | 
35 | CCN(CC)c1ccc(N)cc1 | inconclusive: 49.9 µM [rising, partial curve] | 
36 | CCCCCCCCCCCCCCCC[N+](C)(C)Cc1ccccc1 | inconclusive: 69.8 µM [single point] | 
37 | CCCCCCCCCCCCOC(=O)c1cc(O)c(O)c(O)c1 | inconclusive: 68.6 µM [cytotoxic, single point] | 
38 | CSc1ccc2c(c1)C(N1CCN(C)CC1)Cc1ccccc1S2 (stereo not given) | inconclusive: 13.3 µM [rising, full curve] | 
39 | CCCCCCCCCCCCN(CCO)CCO | inconclusive: 68.3 µM [rising, single point] | 

Reference: PubChem BioAssay (Tox21)
